From paper PMC10668032
The list shows a part of the results. At the low end of the ranking the order means little.

Each sequence was assayed against SIX1 homeodomain (reference allele) (UniProt Q15475) (assay: universal protein binding microarray). Settings: Universal all-10-mer PBM (8x60K, AMADID 030236), 300 nM GST-tagged protein, Alexa Fluor 488 anti-GST; buffer, salt, pH and temperature not stated; high values mean tight binding; most listed sequences are background and not binding sites; double strand, one strand shown.

Sequence | binding signal [E-score]
CGGTTACG | -0.0744
AATGCCTA | 0.0122
GCAGCCAA | 0.063
ATTAGTTA | 0.00553
GTACGATA | 0.338
CATGCGAG | 0.0285
CCAGCTTC | -0.151
GTGTTGGA | 0.0917
CGCTGCAA | -0.25
CCTAGTAC | -0.118
AAAGAGTT | -0.246
ATCAGTCA | 0.223
ACAGCCCA | -0.217
AATTGAAG | -0.108
GCCCCGAC | -0.0832
AATATTGC | 0.121
GTGCATAA | -0.00109
CATTGCAC | -0.0877
CAAAAAGA | -0.118
GAAAATGA | 0.0119
CGGCCGCA | 0.0197
CCTAACGC | -0.143
CAGACCCC | -0.047
AAACCAAG | -0.153
GGGGTGCA | 0.0953

Sequence | binding signal [E-score]
AGGTAGCG | -0.0699
AACCATTG | -0.0642
CAGTGCAG | -0.229
TAAAGGAA | -0.159
CTTTGAAA | -0.231
CTACGGGC | -0.265
AAAGAGGC | -0.259
GATACCGA | 0.416
AACGGGAA | -0.221
AACCTTAT | -0.116
ATCACCTA | 0.232
CATAACCC | -0.0769
AACACCGG | 0.295
GCTCGAGA | -0.11
CTACCTGC | -0.058
ACCGGCGC | -0.0142
CCAGGGTA | 0.221
CTTAACCC | -0.0917
ATAGATGC | 0.0234
ATCGTAGC | 0.093
AAGATTCA | -0.0636
CGCAAGGC | -0.166
GAGATTAC | 0.109
CCACTTAA | -0.0871
GACCGGCC | -0.173

Sequence | binding signal [E-score]
AAAGACGG | -0.106
GCCAACCC | -0.113
AAATGGGC | -0.261
AAAGACCA | -0.273
TCCTTCGA | 0.0312
CTACTATC | 0.273
CTTTTTCA | -0.221
AAGCCGTA | 0.0861
AGCGTCCA | -0.274
CAGTGCTA | 0.063
AAACACCT | 0.148
GTGGAGAA | -0.127
ATTTCTGA | -0.15
GTATACCA | 0.364
CGTTTCCA | -0.222
AGTTGAAG | -0.114
GATGAGTA | 0.135
ATAGGAGC | -0.047
CGATAGGA | 0.26
AGGCGAAT | -0.097
CACATTGG | -0.0156
CTAATTAC | -0.248
ACGACGGG | -0.0227
AATTACAC | 0.0473
ACAGTTCG | -0.188

Sequence | binding signal [E-score]
AACGCAAT | -0.0842
ACAGTCAG | 0.0476
CGCGCTCA | -0.065
GTTGCAAC | -0.158
GCTTACAA | -0.0765
ACCGGGAG | -0.0349
ATTAAGGG | -0.0808
TCGACAGA | -0.101
ACCGGACC | -0.0544
CGGCCGAC | -0.131
GTCGCCAC | -0.219
GTTTTGCA | -0.0257
CCTGCTCA | 0.0754
CAAATCTC | -0.203
ATTTATTC | -0.148
ATATTCCC | 0.305
AGAAGGAT | 0.252
CGGTGTGA | 0.204
AGAGATTG | 0.0402
GAGCCAGC | -0.0938
ACTTTTCT | -0.156
CACATAAC | -0.194
GGAACTTA | -0.0285
AGATATCT | 0.385
TGACAACA | -0.0963

Sequence | binding signal [E-score]
ACACACAG | 0.0893
AAATTAAT | -0.0414
GGGTCTTA | 0.0129
ATTAGGTG | 0.138
GAGTGTAC | 0.0815
ACAATTTG | -0.204
TACAATAA | 0.000795
CTTCTTTC | -0.221
AGAACACG | 0.0747
CACATGTC | -0.267
CGCGATAA | 0.0708
CCGCCTGC | 0.0208
ATATATTA | 0.289
AGCCCGCA | -0.0406
CGGGTGAC | -0.0883
CCTCCCAG | -0.0499
GACTATAA | -0.187
CCGCTGAC | -0.0648
ATCTAACA | 0.125
CTTAGCCA | 0.0299
AACTCTCG | -0.25
AGAGAGAT | 0.204
CGTCGTGA | -0.0144
CATGAACG | -0.0294
ACGCATAT | 0.233

Sequence | binding signal [E-score]
CAGCGTAA | -0.0846
ATGGAAGC | -0.168
CAATGTCC | -0.131
AACCGGCA | -0.135
AGCAGTAG | -0.158
AGGCCGTG | -0.152
TACCTCGA | 0.159
AGGACGGG | -0.137
ATTCAGCC | -0.114
ATTTTTCA | -0.0382
ATGCACCG | -0.152
AGATGGTG | 0.149
CGCCGGCC | -0.0948
GAGCATTA | -0.135
AATTTGGC | -0.263
AGTCGAAA | -0.19
ACTTTATC | 0.0109
GTCCCAAC | -0.163
CAGGACGC | -0.0172
GTAACAAA | -0.231
GATGTGAC | -0.121
ACCTGCTG | 0.0389
CCTACATA | 0.0147
GCAGATAC | 0.375
GGACAGAA | -0.177

Sequence | binding signal [E-score]
CTGAACAC | 0.0251
CATTTATC | -0.067
CCAGCAGC | -0.235
ATCATTTC | 0.196
CTGTTACC | -0.12
CACCGTCC | 0.0327
AAACGTTG | -0.173
ATGCCGTC | 0.11
GGTTCGGA | 0.0581
AGGGACAA | -0.171
ACCCAGCT | 0.181
ACAATCTC | 0.153
ACGAAACC | 0.119
TAGACAGA | -0.0581
GCAACGAA | -0.0389
GGTATGTA | 0.213
CTGTGCGA | -0.118
CCACTCAG | -0.0232
GCCTGCAA | -0.108
AGCTTGGA | -0.228
GTCAGCTA | -0.069
ACTAGCGA | 0.118
ACGGAGCG | -0.14
AATTGCGC | -0.0775
GAGAGTCA | -0.21

Sequence | binding signal [E-score]
CTACAGGC | -0.0787
CTAGCCAC | -0.153
ATAGTACG | 0.209
CCTGAGCG | -0.0498
CTGCGAAC | -0.291
CGTTGTGA | -0.0448
CACAAACC | -0.146
CTATCCGA | 0.33
ATCTGTAC | 0.221
CCATCTAA | 0.0697
CTGGTCTA | 0.201
TTCACCAA | -0.164
TCTTGCCA | -0.0906
AGTGATGG | -0.157
ATCGTTTA | 0.117
AATCCCCC | 0.261
AATTATGA | -0.0408
CGCCTAGC | -0.124
CCATGTCG | -0.0364
AATAGATC | 0.305
AGCATAGA | -0.0509
GGTCAGAA | -0.245
ACGGGCCT | -0.0877
CATAAGGG | -0.0763
TCATCTCA | 0.298

Sequence | binding signal [E-score]
AGTGCATC | 0.00602
TGCATGCA | -0.142
AGGTGGTA | 0.138
ACCGCCTA | 0.0495
ACGTCAGG | -0.232
AGTATCCG | 0.396
ATCACTGC | 0.317
TGCAGAAA | -0.172
GGGTGATA | 0.46
AGAGCCGG | -0.105
CGAACTCC | -0.12
AACGCAGA | 0.0282
AAGTAAGC | -0.217
CGGGTTAG | -0.07
ATACACCG | 0.398
AGAAGTCC | -0.243
ATTGTTAA | -0.169
TACCTCTA | 0.204
CGAATCAG | -0.103
AGAGCTGA | 0.0219
CTTAAGCA | -0.165
CACTAACG | -0.166
ATTTTTAA | -0.125
ACCTTACA | -0.118
GTTTAAAC | -0.108

Sequence | binding signal [E-score]
AACCTACT | -0.111
GTAACCAA | -0.000845
CAGGGGAC | -0.0214
ATCTGTGG | 0.0795
AACTATTC | -0.204
CGCTCTCA | -0.0452
ACGGGCAC | -0.00462
CAGCCTGC | -0.107
CCTCCGCC | 0.0994
AGCTTGTC | -0.133
CTACGAGA | 0.0723
GGATCGGA | 0.38
AGCCAGCC | -0.204
GCTGAAAA | -0.0746
CTTTGGCA | -0.139
ATCCCGCA | 0.158
AACGACAA | -0.14
GCCGAAGA | -0.257
CGCCTTCC | -0.281
ATAAGAAA | -0.0103
AATACGTA | 0.237
CTCGTCAC | -0.0969
CCAAACTA | -0.041
CTTTCCAC | -0.0399
GCGATCCA | 0.345

Sequence | binding signal [E-score]
CCGTGTTA | -0.00292
GTCGAGAA | -0.179
AGTATTTG | -0.0508
ATGAATAG | 0.0136
GTGAGAAC | 0.0921
ATTCTCTG | -0.207
GACTTGAC | -0.255
AACGCCTA | -0.209
ATCACGCA | 0.203
AATGATTG | -0.168
AACTTCGC | -0.236
CCTCGCGA | -0.0767
GAGAACAC | 0.141
CTTAATGA | -0.0702
CATCTCGC | -0.00651
ATACTGCC | 0.313
TGTATACA | 0.319
CTAATGGC | -0.212
CCAGCGAG | -0.048
ACACCCGA | 0.294
TAATTGTA | -0.21
CCCAACAG | -0.0273
CCCGTAGA | -0.00396
AGCGTAAC | -0.319
TCGCCACA | -0.135

Sequence | binding signal [E-score]
CCCAATAA | -0.122
GCCGCGAC | -0.0148
ACAACACA | -0.216
CCCTTTGC | 0.00697
CGGCTTTC | -0.27
AAGGGAGG | -0.158
ACGTGCTC | -0.015
CGTATCGA | 0.398
GAGCGGGA | -0.0493
AGGAAAGA | -0.212
ATATTCCG | 0.183
GGGGGGGA | -0.00511
AGCAAAAA | -0.287
CGGCGGAA | -0.148
ATTAGGAA | -0.0226
CAAAGCTG | -0.1
ATGCCTGC | 0.0586
GAAAAAGC | -0.213
ACGCGAGC | -0.169
ACCGCCAG | -0.0393
CTTCAAAC | -0.207
ATCAACTC | 0.23
ACGCGAAG | -0.246
AATGGTGC | -0.00096
AATGGATC | 0.35

Sequence | binding signal [E-score]
CGCCTATA | 0.178
ATAATACC | 0.421
ACTACCCA | -0.0174
CTCCCCGC | 0.15
TCGGCTAA | -0.06
ATCGGCAT | 0.205
AGGAGGGG | 0.0173
CCTGCCAC | -0.136
CATAATAC | 0.34
CTGCGTTC | -0.182
AGCACGCC | -0.193
CGTCAACG | -0.173
ACCCCACA | 0.15
CCCTCAGA | -0.0118
CCAGTCCG | -0.146
ACTGCAAT | -0.146
CAACGCGG | -0.226
GCGGTGAC | -0.17
TAAATACA | 0.0859
CCTCCGGC | 0.123
GAGTTGCC | -0.161
AGCAGACA | -0.00281
AAGCCGGT | -0.142
CTTACGCA | -0.25
CCGCTAAG | 0.0528

Sequence | binding signal [E-score]
CAAGAATA | 0.104
CACCTTCG | 0.0539
GCAGTTGA | 0.0443
ACGGTGGG | -0.0615
ATGCGGCC | -0.091
AATAGTCC | -0.0812
CTGTATCA | 0.418
CTACAGGA | -0.0807
CCTAATGA | 0.0182
AATGTGTA | -0.076
GGAGTTAA | -0.102
AAATTGCC | -0.0329
ATAGACTA | 0.0286
CTCCCAGC | -0.12
CCCCGTTC | 0.0485
ACGACCAA | -0.0689
AATTTTCC | -0.0716
CGAATTAA | -0.128
CTCGCACC | -0.0623
